The list shows a part of the results. Construct or isoform of the protein are uncertain.

The assay deals with GST-SBP-ILF3 (Homo sapiens) (UniProt Q12906). In words: targeted RNA Bind-n-Seq. The following applies: RBNS binding buffer: 25 mM Tris pH 7.5, 150 mM KCl, 3 mM MgCl2, 0.1% Tween, 0.5 mg/mL BSA, 1 mM DTT; 27 nM protein, 750 pM RNA pool; temperature not stated; high values mean tight binding; sequences stand for … in GGGUAAAAGCGAGGUGAA…CGGGACAAGUAUUAUGGG
In the case of “UUUUUUUUUUGAGACCGGGUCGGUUUCCUA [tttttgagapaired]”, the binding signal (log2 fold change) turned out to be 0.464.

As for “UUUUUUUUUUGAGAUCGUAACGAUCUCCUG [tttttgagapaired]”, the binding signal (log2 fold change) came to 0.379. Consider “GGUUGUGGUGUUGGUGCCUAACACCGCAGC [gtspaired]”, for which the binding signal (log2 fold change) is -0.6. For “UUUUUUUUUUGAGACGGUAUCCGUCUCCAG [tttttgagapaired]”, the binding signal (log2 fold change) worked out at 0.307. To “GUGUGGUGUGUUGGUUCCUAACACACCGCG [gtspaired]” belongs -0.355; to “UUUUUUUUUUGAGAUGGUACCCAUCUCCAG [tttttgagapaired]”, 0.155; to “UUUUUUUUUUGAGAACGGUCCGUUCUCCGG [tttttgagapaired]”, 0.723. “UUUUUUUUUUGAGAGCGAUUCGUUCUCCGG [tttttgagapaired]”: the binding signal (log2 fold change) was -0.11. For “UUUUUUUUUUGAGAUGGUAUCUAUCUCCGG [tttttgagapaired]”, the binding signal (log2 fold change) came to 0.162. Consider “UUCUCUCUUCCUCCGCCGGAGGAGGGGAGA [ctspaired]”, for which the binding signal (log2 fold change) was -0.393. Take “GUGGUGUGUGUUGGCCUCUAACACACGCCA [gtspaired]”: the binding signal (log2 fold change) was -0.377.

For the sequence “UUUUUUUUUUGAGACGGUAGCCGUCUUCUG [tttttgagapaired]”, the binding signal (log2 fold change) was 0.675. Regarding “GGUGUGUGUGUUGGCGCCUAACACACGCGC [gtspaired]”, the binding signal (log2 fold change) was -0.447. To “GUGUGUGGUGUUGGACCCUAACACCAUACA [gtspaired]” belongs -0.122.

Turning to “GUGUGUUGUGUUGGUCCCUAACACAGCACA [gtspaired]”, the binding signal (log2 fold change) is -0.928. Consider “UUUUUUUUUUGAGAUGGUAGCUAUCUCCUG [tttttgagapaired]”, for which the binding signal (log2 fold change) is 0.478. Regarding “UUUUUUUUUUGAGACUGACUCAGUCUUCUG [tttttgagapaired]”, the binding signal (log2 fold change) came out at 0.181. As to “UUUUUUUUUUGAGAACGAAUCGUUCUCCAG [tttttgagapaired]”, the binding signal (log2 fold change) was -0.258. To “GUGUGUUGUGUUGGAAUCUAACACAGCGCG [gtspaired]” belongs -0.608; to “GUGUGGUGUGUUGGCGUCUAACACAUCACG [gtspaired]”, -0.624. On to “UUUUUUUUUUGAGAACGGGGCGUUCUUCUG [tttttgagapaired]”, for which the binding signal (log2 fold change) is 0.66. With “GUGUGUUGUGUUGGUCCCUAACACAACGCG [gtspaired]”, the binding signal (log2 fold change) was -0.604. Regarding “UUUUUUUUUUGAGAUGGGUGCCAUCUCCGG [tttttgagapaired]”, the binding signal (log2 fold change) came to 0.369. As for “GUGGUGUGUGUUGGUCUCUAACACAUACUA [gtspaired]”, the binding signal (log2 fold change) is -0.852. For “UUUUUUUUUUGAGAUGGGGUCCAUUUCCAG [tttttgagapaired]”, the binding signal (log2 fold change) worked out at 0.63.

For “GUGUGUUGUGUUGGCGUCUAACACAACACG [gtspaired]”, the binding signal (log2 fold change) was -0.496. As to “UUUUUUUUUUGAGAGCGGUGCGUUCUCCGG [tttttgagapaired]”, the binding signal (log2 fold change) was found to be 0.332. For the sequence “UUUUUUUUUUGAGACUGAGACAGUCUCCUA [tttttgagapaired]”, the binding signal (log2 fold change) stood at 0.701. Consider “UUUUUUUUUUGAGAUGGAGCCCAUCUCCAG [tttttgagapaired]”, for which the binding signal (log2 fold change) amounted to 0.542. With “GUGGUGUGUGUUGGAGUCUAACACACGCCG [gtspaired]”, the binding signal (log2 fold change) is -0.332.

In the case of “UUUUUUUUUUGAGAGCGAGACGCUCUCCGG [tttttgagapaired]”, the binding signal (log2 fold change) is 0.224. Consider “UUUUUUUUUUGAGACCGCUCCGGUCUUCUA [tttttgagapaired]”, for which the binding signal (log2 fold change) amounted to 0.849. Regarding “GGUUGGUGUGUUGGUAUCUAACACAUCAGC [gtspaired]”, the binding signal (log2 fold change) was -0.801. For “UUUUUUUUUUGAGAUGGUAGCCAUCUCCAG [tttttgagapaired]” the value was 0.351; for “GGUGGUGGUGUUGGUGUCUAACACCAUCGC [gtspaired]”, -0.62; for “UUUUUUUUUUGAGAGUGUGACAUUCUCCGG [tttttgagapaired]”, 0.291. Consider “GUUGGUGGUGUUGGCUUCUAACACCAUCAA [gtspaired]”, for which the binding signal (log2 fold change) is -0.271. Take “GUGUGUUGUGUUGGUGCCUAACACAGCACG [gtspaired]”: the binding signal (log2 fold change) was -0.508.

As to “UUUUUUUUUUGAGAGGGAAUCCCUCUCCGG [tttttgagapaired]”, the binding signal (log2 fold change) was -0.0222. Take “UUUUUUUUUUGAGACCGACACGGUUUCCGG [tttttgagapaired]”: the binding signal (log2 fold change) stood at 0.553. To “UUUUUUUUUUGAGACGGUGUCCGUCUCCGG [tttttgagapaired]” belongs 0.755; to “UUUUUUUUUUGAGACCGGGACGGUCUCCUG [tttttgagapaired]”, 0.844; to “UUUUUUUUUUGAGACGGCUGCCGUCUCCUG [tttttgagapaired]”, 1.06. Turning to “UUUUUUUUUUGAGAGCGGGCCGUUCUCCAG [tttttgagapaired]”, the binding signal (log2 fold change) was 0.486. To “GUGUGGUGUGUUGGUCCCUAACACAUCGCG [gtspaired]” belongs -0.55; to “UUUUUUUUUUGAGAUGGUGACCAUCUCCGG [tttttgagapaired]”, 0.23. With “GUGUGUGGUGUUGGAGCCUAACACCGCACG [gtspaired]”, the binding signal (log2 fold change) was -0.444. In the case of “UUUUUUUUUUGAGAGCGAUCCGUUCUCCAG [tttttgagapaired]”, the binding signal (log2 fold change) is 0.277. Turning to “UUUUUUUUUUGAGAGUGAAGCACUCUCCGG [tttttgagapaired]”, the binding signal (log2 fold change) was 0.0251. Consider “GUGUGGUGUGUUGGACCCUAACACAUCGCG [gtspaired]”, for which the binding signal (log2 fold change) is -0.332.

Values taken from article PMC5892938.
